Part of at least one peptide drawing is inferred or uncertain, most often the ends. Starred links: 1 amine or outer side, 2 acyl side, 3 side chain; linkers in the order of their positions; H or OH if unused. Non-standard residues stand in square brackets, D forms with d. Residues, ends and D or L forms follow the SMILES beside them. Groups on a side chain read outwards from the residue. *: point of attachment. C18 diacid = O=C(O)CCCCCCCCCCCCCCCCC(=O)*; C17 diacid = O=C(O)CCCCCCCCCCCCCCCC(=O)*; γGlu = O=C(O)[C@H](CCC(=O)[*:2])N[*:1]; NMeY = CN[C@@H](Cc1ccc(O)cc1)C(=O)O; AEEA = NCCOCCOCC(=O)O; Aib = CC(C)(N)C(=O)O
Tests used:
C57BL/6J mice = assay: Oral glucose tolerance test (OGTT); assay type: in vivo; conditions: 3 nmol/kg s.c., 24 hours before glucose loading
How it was run: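 Peptide or vehicle given s.c. at 0.1, 0.3, 3 or 10 nmol/kg (peptide-dependent), 24 h before oral 50% dextrose at 5 ml/kg unless stated otherwise. Blood glucose read at 0, 15, 30 and 60 min. % inhibition = (1−(AUC cpd−AUC naïve)/(AUC veh−AUC naïve))×100.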

female beagle dogs = assay: PYY-1119-induced vomiting in dogs; assay type: in vivo; conditions: 72 hours post-dose (lower line)
Procedure: The GIPR agonist peptide compounds of the present disclosure or vehicle (0.09% [w/v] Tween 80/10% DMSO/PBS) were administered subcutaneously (sc) at 3-10 nmol/kg to female beagle dogs (10 months old), followed by sc injections with Y2R agonist ((4-imidazolecarbonyl-Ser-D-Hyp-Iva-Pya(4)-Cha-Leu(Me)-Asn-Lys-Aib-Thr-Arg-Gln-Arg-Cha-NH2), […]), […]) at 1 hour or specified hours in the table postdose. Emetic episodes were counted for 2 hours after administration (by blinded analysis).

human GLP-1R = molecular target: T1, human GLP-1R (Homo sapiens, UniProt P43220); assay: Human GLP1R agonist activity, intracellular cAMP accumulation; assay type: cell-based; conditions: HEK-293T cells overexpressing human GLP-1R, 1 hr, read-out: Human GLP1R cAMP EC50, HEK293T
T1 construct: HEK-293T cells overexpressing full-length human GLP-1R; FLAG (N); host or cells: HEK-293T
How it was run: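 cAMP accumulation is measured by HTRF after a 1 hr, room-temperature, dark exposure of thawed cells (4×10^5 cells/mL in Krebs Ringer buffer) to compound. Activity is scaled between DMSO alone as 0% and 1 nm GLP-1 as 100%.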

T1 sequence (P43220 24-463): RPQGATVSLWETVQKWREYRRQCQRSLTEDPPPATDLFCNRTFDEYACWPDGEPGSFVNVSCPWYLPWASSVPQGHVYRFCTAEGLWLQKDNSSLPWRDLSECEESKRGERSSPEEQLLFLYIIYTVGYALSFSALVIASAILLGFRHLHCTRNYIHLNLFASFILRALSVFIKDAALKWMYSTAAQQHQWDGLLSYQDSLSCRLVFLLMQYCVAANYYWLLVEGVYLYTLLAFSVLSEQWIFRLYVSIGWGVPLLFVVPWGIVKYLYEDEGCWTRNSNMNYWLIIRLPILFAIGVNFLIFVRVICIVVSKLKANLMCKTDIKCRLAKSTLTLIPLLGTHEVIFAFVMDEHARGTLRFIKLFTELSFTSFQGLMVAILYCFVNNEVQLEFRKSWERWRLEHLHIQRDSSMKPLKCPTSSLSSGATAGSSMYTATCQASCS

With `CC[C@H](C)[C@H](NC(=O)[C@H](CO)NC(=O)[C@H](Cc1ccc(O)cc1)NC(=O)[C@H](CC(=O)O)NC(=O)[C@H](CO)NC(=O)[C@@H](NC(=O)[C@H](Cc1ccccc1)NC(=O)[C@@H](NC(=O)CNC(=O)[C@H](CCC(=O)O)NC(=O)C(C)(C)NC(=O)[C@@H](N)Cc1ccc(O)cc1)[C@@H](C)O)[C@@H](C)CC)C(=O)N[C@@H](C)C(=O)N[C@@H](CC(C)C)C(=O)N[C@@H](CC(=O)O)C(=O)N[C@@H](CCCCN)C(=O)N[C@@H](C)C(=O)N[C@@H](CCCCNC(=O)COCCOCCNC(=O)COCCOCCNC(=O)CC[C@H](NC(=O)CCCCCCCCCCCCCCCCC(=O)O)C(=O)O)C(=O)N[C@@H](CCC(N)=O)C(=O)NC(C)(C)C(=O)N[C@@H](CC(=O)O)C(=O)N[C@@H](Cc1ccccc1)C(=O)N[C@H](C(=O)N[C@@H](CCC(=O)O)C(=O)N[C@@H](Cc1c[nH]c2ccccc12)C(=O)N[C@@H](CC(C)C)C(=O)N[C@@H](CC(C)C)C(=O)N[C@@H](C)C(=O)N[C@@H](CCC(N)=O)C(=O)N[C@@H](CCCNC(=N)N)C(=O)NCC(=O)O)C(C)C` [Compound 161] (H-Y[Aib]EGTFISDYSIALDKAK([AEEA-AEEA-γGlu-C18 diacid])Q[Aib]DFVEWLLAQRG-OH) the “Oral Glucose Tolerance Test Percent decrease in blood glucose AUC (%) over 60 mins” value (C57BL/6J mice) was 4% (3 nmol/kg), the “Inhibition (%) of PYY-1119-induced emetic event” value (from here on “Inhibition (%)”) (female beagle dogs; 3 nmol/kg s.c.) was 86% (3 nmol/kg) and the EC50 (human GLP-1R) was 0.0851 µM.
For `CC[C@H](C)[C@H](NC(=O)[C@H](CO)NC(=O)[C@H](Cc1ccc(O)cc1)NC(=O)[C@H](CC(=O)O)NC(=O)[C@H](CO)NC(=O)[C@@H](NC(=O)[C@H](Cc1ccccc1)NC(=O)[C@@H](NC(=O)CNC(=O)[C@H](CCC(=O)O)NC(=O)C(C)(C)NC(=O)[C@H](Cc1ccc(O)cc1)NC)[C@@H](C)O)[C@@H](C)CC)C(=O)N[C@@H](C)C(=O)N[C@@H](CC(C)C)C(=O)N[C@@H](CC(=O)O)C(=O)N[C@@H](CCCNC(=N)N)C(=O)NC(C)(C)C(=O)N[C@@H](C)C(=O)N[C@@H](CCC(N)=O)C(=O)NC(C)(C)C(=O)N[C@@H](CCCCNC(=O)COCCOCCNC(=O)COCCOCCNC(=O)CC[C@H](NC(=O)CC[C@H](NC(=O)CCCCCCCCCCCCCCCCC(=O)O)C(=O)O)C(=O)O)C(=O)N[C@@H](Cc1ccccc1)C(=O)N[C@H](C(=O)N[C@@H](CC(N)=O)C(=O)N[C@@H](Cc1c[nH]c2ccccc12)C(=O)N[C@@H](CC(C)C)C(=O)N[C@@H](CC(C)C)C(=O)N[C@@H](C)C(=O)N[C@@H](CCC(N)=O)C(=O)N[C@@H](CCCNC(=N)N)C(=O)NCC(=O)NCC(=O)NCC(=O)NCC(=O)N[C@@H](CO)C(N)=O)C(C)C` [Compound 21] (H-[NMeY][Aib]EGTFISDYSIALDR[Aib]AQ[Aib]K([AEEA-AEEA-γGlu-γGlu-C18 diacid])FVNWLLAQRGGGGS-NH2), the “Oral Glucose Tolerance Test Percent decrease in blood glucose AUC (%) over 60 mins” value (C57BL/6J mice) was 32% (3 nmol/kg), the “Inhibition (%)” value (female beagle dogs; 3 nmol/kg s.c.) was 88% (3 nmol/kg) and the EC50 (human GLP-1R) was 0.0347 µM.
In the case of `CC[C@H](C)[C@H](NC(=O)[C@H](Cc1ccccc1)NC(=O)[C@@H](NC(=O)CNC(=O)[C@H](CCC(=O)O)NC(=O)C(C)(C)NC(=O)[C@H](Cc1ccc(O)cc1)NC)[C@@H](C)O)C(=O)N[C@@H](CO)C(=O)N[C@@H](CC(=O)O)C(=O)N[C@@H](Cc1ccc(O)cc1)C(=O)N[C@@H](CO)C(=O)N[C@H](C(=O)NC(C)(C)C(=O)N[C@@H](CC(C)C)C(=O)N[C@@H](CC(=O)O)C(=O)N[C@@H](CCCNC(=N)N)C(=O)NC(C)(C)C(=O)N[C@@H](C)C(=O)N[C@@H](CCC(N)=O)C(=O)NC(C)(C)C(=O)N[C@@H](CCCCNC(=O)COCCOCCNC(=O)COCCOCCNC(=O)CC[C@H](NC(=O)CC[C@H](NC(=O)CCCCCCCCCCCCCCCCC(=O)O)C(=O)O)C(=O)O)C(=O)N[C@@H](Cc1ccccc1)C(=O)N[C@H](C(=O)N[C@@H](CCC(=O)O)C(=O)N[C@@H](Cc1c[nH]c2ccccc12)C(=O)N[C@@H](CC(C)C)C(=O)N[C@@H](CC(C)C)C(=O)N[C@@H](C)C(=O)N[C@@H](CCC(N)=O)C(=O)N[C@@H](CCCCN)C(=O)NCC(=O)O)C(C)C)[C@@H](C)CC` [Compound 110] (H-[NMeY][Aib]EGTFISDYSI[Aib]LDR[Aib]AQ[Aib]K([AEEA-AEEA-γGlu-γGlu-C18 diacid])FVEWLLAQKG-OH), the “Oral Glucose Tolerance Test Percent decrease in blood glucose AUC (%) over 60 mins” value (C57BL/6J mice) is reported as 57% (3 nmol/kg), the “Inhibition (%)” value (female beagle dogs; 3 nmol/kg s.c.) is reported as 98% (3 nmol/kg) and the EC50 (human GLP-1R) is reported as 0.1 µM.
With `CC[C@H](C)[C@H](NC(=O)[C@H](Cc1ccccc1)NC(=O)[C@@H](NC(=O)CNC(=O)[C@H](CCC(=O)O)NC(=O)C(C)(C)NC(=O)[C@H](Cc1ccc(O)cc1)NC)[C@@H](C)O)C(=O)N[C@@H](CO)C(=O)N[C@@H](CC(=O)O)C(=O)N[C@@H](Cc1ccc(O)cc1)C(=O)N[C@@H](CO)C(=O)N[C@H](C(=O)NC(C)(C)C(=O)N[C@@H](CCCCNC(=O)COCCOCCNC(=O)COCCOCCNC(=O)CC[C@H](NC(=O)CC[C@H](NC(=O)CCCCCCCCCCCCCCCC(=O)O)C(=O)O)C(=O)O)C(=O)N[C@@H](CC(=O)O)C(=O)N[C@@H](CCCNC(=N)N)C(=O)NC(C)(C)C(=O)N[C@@H](C)C(=O)N[C@@H](CCC(N)=O)C(=O)NC(C)(C)C(=O)N[C@@H](CC(N)=O)C(=O)N[C@@H](Cc1ccccc1)C(=O)N[C@H](C(=O)N[C@@H](CC(N)=O)C(=O)N[C@@H](Cc1c[nH]c2ccccc12)C(=O)N[C@@H](CC(C)C)C(=O)N[C@@H](CC(C)C)C(=O)N[C@@H](C)C(=O)N[C@@H](CCC(N)=O)C(=O)N[C@@H](CCCNC(=N)N)C(=O)N1CCC[C@H]1C(=O)N[C@@H](CO)C(=O)N[C@@H](CO)C(=O)NCC(=O)N[C@@H](C)C(=O)N1CCC[C@H]1C(=O)N1CCC[C@H]1C(=O)N1CCC[C@H]1C(=O)N[C@@H](CO)C(N)=O)C(C)C)[C@@H](C)CC` [Compound 14] (H-[NMeY][Aib]EGTFISDYSI[Aib]K([AEEA-AEEA-γGlu-γGlu-C17 diacid])DR[Aib]AQ[Aib]NFVNWLLAQRPSSGAPPPS-NH2) the “Oral Glucose Tolerance Test Percent decrease in blood glucose AUC (%) over 60 mins” value (C57BL/6J mice) was 25% (3 nmol/kg) and the “Inhibition (%)” value (female beagle dogs; 10 nmol/kg s.c.) was 84% (10 nmol/kg).
In the case of `CC[C@H](C)[C@H](NC(=O)[C@H](Cc1ccccc1)NC(=O)[C@@H](NC(=O)CNC(=O)[C@H](CCC(=O)O)NC(=O)C(C)(C)NC(=O)[C@H](Cc1ccc(O)cc1)NC)[C@@H](C)O)C(=O)N[C@@H](CO)C(=O)N[C@@H](CC(=O)O)C(=O)N[C@@H](Cc1ccc(O)cc1)C(=O)N[C@@H](CO)C(=O)N[C@H](C(=O)NC(C)(C)C(=O)N[C@@H](CC(C)C)C(=O)N[C@@H](CC(=O)O)C(=O)N[C@@H](CCCNC(=N)N)C(=O)NC(C)(C)C(=O)N[C@@H](C)C(=O)N[C@@H](CCC(N)=O)C(=O)NC(C)(C)C(=O)N[C@@H](CC(N)=O)C(=O)N[C@@H](Cc1ccccc1)C(=O)N[C@H](C(=O)N[C@@H](CC(N)=O)C(=O)N[C@@H](Cc1c[nH]c2ccccc12)C(=O)N[C@@H](CC(C)C)C(=O)N[C@@H](CC(C)C)C(=O)N[C@@H](C)C(=O)N[C@@H](CCC(N)=O)C(=O)N[C@@H](CCCCNC(=O)COCCOCCNC(=O)COCCOCCNC(=O)CC[C@H](NC(=O)CC[C@H](NC(=O)CCCCCCCCCCCCCCCCC(=O)O)C(=O)O)C(=O)O)C(=O)N1CCC[C@H]1C(=O)N[C@@H](CO)C(=O)N[C@@H](CO)C(=O)NCC(=O)N[C@@H](C)C(=O)N1CCC[C@H]1C(=O)N1CCC[C@H]1C(=O)N1CCC[C@H]1C(=O)N[C@@H](CO)C(N)=O)C(C)C)[C@@H](C)CC` [Compound 27, Me-Y-Aib-E-G-T-F-I-S-D-Y-S-I-Aib-L-D-R-Aib-A-Q-Aib-N-F-V-N-W-L-L-A-Q-Km-P-S-S-G-A-P-P-P-S-NH2] (H-[NMeY][Aib]EGTFISDYSI[Aib]LDR[Aib]AQ[Aib]NFVNWLLAQK([AEEA-AEEA-γGlu-γGlu-C18 diacid])PSSGAPPPS-NH2), the “Oral Glucose Tolerance Test Percent decrease in blood glucose AUC (%) over 60 mins” value (C57BL/6J mice) is reported as 45% (3 nmol/kg) and the “Inhibition (%)” value (female beagle dogs; 3 nmol/kg s.c.) is reported as 90% (3 nmol/kg).
`CC[C@H](C)[C@H](NC(=O)[C@H](CO)NC(=O)[C@H](Cc1ccc(O)cc1)NC(=O)[C@H](CC(=O)O)NC(=O)[C@H](CO)NC(=O)[C@@H](NC(=O)[C@H](Cc1ccccc1)NC(=O)[C@@H](NC(=O)CNC(=O)[C@H](CCC(=O)O)NC(=O)C(C)(C)NC(=O)[C@H](Cc1ccc(O)cc1)NC)[C@@H](C)O)[C@@H](C)CC)C(=O)N[C@@H](C)C(=O)N[C@@H](CC(C)C)C(=O)N[C@@H](CC(=O)O)C(=O)N[C@@H](CCCCN)C(=O)N[C@@H](C)C(=O)N[C@@H](C)C(=O)N[C@@H](CCC(N)=O)C(=O)NC(C)(C)C(=O)N[C@@H](CCCCNC(=O)COCCOCCNC(=O)COCCOCCNC(=O)CC[C@H](NC(=O)CC[C@H](NC(=O)CCCCCCCCCCCCCCCCC(=O)O)C(=O)O)C(=O)O)C(=O)N[C@@H](Cc1ccccc1)C(=O)N[C@H](C(=O)N[C@@H](CC(N)=O)C(=O)N[C@@H](Cc1c[nH]c2ccccc12)C(=O)N[C@@H](CC(C)C)C(=O)N[C@@H](CC(C)C)C(=O)N[C@@H](C)C(=O)N[C@@H](CCC(N)=O)C(=O)N[C@@H](CCCNC(=N)N)C(=O)NCC(=O)O)C(C)C` [Compound 176] (H-[NMeY][Aib]EGTFISDYSIALDKAAQ[Aib]K([AEEA-AEEA-γGlu-γGlu-C18 diacid])FVNWLLAQRG-OH) was tested, and the “Oral Glucose Tolerance Test Percent decrease in blood glucose AUC (%) over 60 mins” value (C57BL/6J mice) was 53% (3 nmol/kg) and the “Inhibition (%)” value (female beagle dogs; 3 nmol/kg s.c.) was 90% (3 nmol/kg).

Source: patent publication US20230143604A1, “QW DOSING OF GIP RECEPTOR AGONIST PEPTIDE COMPOUNDS AND USES THEREOF” (TAKEDA PHARMACEUTICAL COMPANY LIMITED, priority 2020, published 2023)
